Test results from the supplement of paper PMC6089552.
The whole screen tested about 3,200 compounds, of which about 300 (9.4%) showed activity. The list shows a part of the results, in another mix than the full data.

System: A673/TR/shEF
Experiment: cell viability (LOESS-normalised, relative to median of negative controls) (log2 ratio); higher = more viable cells (less compound effect), active = hit call of the paper (over 3 MAD below the median)
Details: treatment time: 72 h
Procedure, shortened: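 For three days, A673/TR/shEF Ewing sarcoma cells in 384-well plates (1,500 per well) were treated with library compounds at two or more concentrations or with DMSO controls, after doxycycline had been added or withheld 24 h beforehand to induce EWS-FLI1 shRNA knockdown. Viability was read by CellTiter-Glo luminescence on an Envision reader. The data were LOESS-corrected per plate, divided by the median of negative controls and log2-transformed.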

[1] = 0.25 µM, library screen: screen1, EWS-FLI1 expression: high (no doxycycline)
[2] = 0.25 µM, library screen: screen1, EWS-FLI1 expression: low (doxycycline-induced shRNA knockdown)
[3] = 2.5 µM, library screen: screen1, EWS-FLI1 expression: high (no doxycycline)
[4] = 2.5 µM, library screen: screen1, EWS-FLI1 expression: low (doxycycline-induced shRNA knockdown)
[5] = 0.25 µM, library screen: screen2, EWS-FLI1 expression: high (no doxycycline)
[6] = 0.25 µM, library screen: screen2, EWS-FLI1 expression: low (doxycycline-induced shRNA knockdown)
[7] = 2.5 µM, library screen: screen2, EWS-FLI1 expression: high (no doxycycline)
[8] = 2.5 µM, library screen: screen2, EWS-FLI1 expression: low (doxycycline-induced shRNA knockdown)
[9] = 0.025 µM, library screen: screen1, EWS-FLI1 expression: high (no doxycycline)
[10] = 0.025 µM, library screen: screen1, EWS-FLI1 expression: low (doxycycline-induced shRNA knockdown)
[11] = 25 µM, library screen: screen1, EWS-FLI1 expression: high (no doxycycline)
[12] = 25 µM, library screen: screen1, EWS-FLI1 expression: low (doxycycline-induced shRNA knockdown)
[13] = 0.103 µM, library screen: screen3, EWS-FLI1 expression: high (no doxycycline)
[14] = 0.103 µM, library screen: screen3, EWS-FLI1 expression: low (doxycycline-induced shRNA knockdown)
[15] = 0.308 µM, library screen: screen3, EWS-FLI1 expression: high (no doxycycline)
[16] = 0.308 µM, library screen: screen3, EWS-FLI1 expression: low (doxycycline-induced shRNA knockdown)
[17] = 0.926 µM, library screen: screen3, EWS-FLI1 expression: high (no doxycycline)
[18] = 0.926 µM, library screen: screen3, EWS-FLI1 expression: low (doxycycline-induced shRNA knockdown)
[19] = 2.8 µM, library screen: screen3, EWS-FLI1 expression: high (no doxycycline)
[20] = 2.8 µM, library screen: screen3, EWS-FLI1 expression: low (doxycycline-induced shRNA knockdown)
[21] = 8.3 µM, library screen: screen3, EWS-FLI1 expression: high (no doxycycline)
[22] = 8.3 µM, library screen: screen3, EWS-FLI1 expression: low (doxycycline-induced shRNA knockdown)
[23] = 25 µM, library screen: screen3, EWS-FLI1 expression: high (no doxycycline)
[24] = 25 µM, library screen: screen3, EWS-FLI1 expression: low (doxycycline-induced shRNA knockdown)

Measured: cell viability (log2)

CC(=O)NO
inactive: [1] 0.0521 | [2] 0.00845 | [3] 0.104 | [4] 0.202

CC(N)(Cc1ccc(O)c(O)c1)C(=O)O (stereo unspecified)
inactive: [5] 0.178 | [6] 0.0804 | [7] 0.0937 | [8] 0.102

CC(C)(Oc1ccc(Cl)cc1)C(=O)O
inactive: [1] 0.146 | [2] 0.0417 | [3] 0.186 | [4] 0.0422

CN1CCCN=C1COC(=O)C(O)(c1ccccc1)C1CCCCC1 (stereo unspecified)
inactive: [1] 0.0812 | [2] -0.00447 | [3] 0.0266 | [4] 0.0104

CSc1ccc(C(=O)c2[nH]c(=O)[nH]c2C)cc1
inactive: [5] 0.128 | [6] 0.0675 | [7] 0.157 | [8] 0.089

CC(C)(S)[C@@H](N)C(=O)O
inactive: [1] 0.127 | [2] -0.0401 | [3] 0.158 | [4] 0.139

CO[C@H]1C[C@H](O[C@H]2[C@H](C)[C@@H](O[C@@H]3O[C@H](C)C[C@H](N(C)C)[C@H]3OC(C)=O)[C@@H](C)C[C@@]3(CO3)C(=O)[C@H](C)[C@@H](OC(C)=O)[C@@H](C)[C@@H](C)OC(=O)[C@@H]2C)O[C@@H](C)[C@@H]1OC(C)=O
inactive: [1] 0.146 | [2] -0.0307 | [3] 0.205 | [4] 0.063

COc1ccc2c(c1)CC[C@@H]1[C@@H]2CC[C@]2(C)[C@@H](NCCCCCCN3C(=O)C=CC3=O)CC[C@@H]12
inactive: [5] 0.132 | [6] 0.0029 | [7] 0.104 | [8] 0.128

CC(C)N1C(=O)C(=C2C(=O)N(C)c3ccccc32)SC1=S
inactive: [1] 0.0638 | [2] 0.00946 | [3] 0.0618 | [4] 0.138

NCC1CCC(C(=O)O)CC1 (stereo unspecified)
inactive: [1] 0.00336 | [2] 0.0452 | [3] 0.0249 | [4] 0.138

CC(C)(C)n1nc(-c2ccc(Cl)cc2)c2c(N)ncnc21
inactive: [9] 0.227 | [10] -0.0277 | [1] 0.174 | [2] 0.0475 | [4] 0.0249 | [12] -0.00123
active: [3] -0.388 | [11] -0.453

CCCCCCCCCCC[C@@H](C[C@@H]1OC(=O)[C@H]1CCCCCC)OC(=O)[C@H](CC(C)C)NC=O
inactive: [13] 0.0583 | [14] 0.00452 | [1] -0.0226 | [2] 0.0354 | [15] 0.0475 | [16] 0.11 | [17] -0.01 | [18] 0.0194 | [4] 0.178 | [19] -0.0124 | [20] 0.136 | [21] -0.103 | [22] -0.0203 | [23] -0.119 | [24] -0.0365
active: [3] -0.116

S=C(Nc1ccccc1)Nc1nccs1
inactive: [5] 0.0659 | [6] 0.111 | [7] 0.0734 | [8] 0.0848

CC(=O)N[C@@H](CC(=O)O)C(=O)O
inactive: [1] 0.166 | [2] 0.0323 | [3] 0.113 | [4] -0.0432

O=C1O[C@H](CO)[C@@H](O)[C@H](O)[C@H]1O
inactive: [1] 0.0849 | [2] 0.0934 | [3] 0.14 | [4] 0.0928

COc1cc(C/C=C/c2ccccc2)c(OC)cc1O
inactive: [1] 0.135 | [2] 0.0292 | [3] 0.0659 | [4] 0.128

CN1CCC(=C2c3ccccc3CC(=O)c3sccc32)CC1
inactive: [1] 0.205 | [2] 0.03 | [5] 0.22 | [6] 0.105 | [3] 0.214 | [4] 0.187 | [7] 0.09 | [8] 0.143

COc1ccccc1N1CCN(CC(O)COc2cccc3ccccc23)CC1 (stereo unspecified)
inactive: [13] 0.000176 | [14] 0.0198 | [5] 0.158 | [6] 0.0891 | [15] 0.0232 | [16] 0.0219 | [17] 0.0654 | [18] 0.0336 | [7] 0.173 | [8] 0.0627 | [19] 0.0333 | [20] -0.000649 | [21] 0.0714 | [22] 0.0523 | [23] -0.00126 | [24] 0.031

CC[C@H](CC[C@@H](C)[C@H]1CC[C@H]2[C@@H]3CC=C4C[C@@H](O)CC[C@]4(C)[C@H]3CC[C@]12C)C(C)C
inactive: [1] 0.124 | [2] 0.0474 | [3] 0.11 | [4] 0.122

COc1cc(OC)c(C2NC(=S)NC(C)=C2C(=O)Nc2cccc(Cl)c2)cc1OC (stereo unspecified)
inactive: [1] 0.0501 | [2] 0.0639 | [3] 0.0887 | [4] 0.0905

CC(=O)NCCc1c[nH]c2ccc(O)cc12
inactive: [1] 0.044 | [2] -0.00702 | [5] -0.0254 | [6] 0.142 | [3] 0.159 | [4] 0.048 | [7] 0.205 | [8] 0.269

CC(=O)Oc1c(Cl)c(C)c2c(c1Cl)OC(=O)c1c(C)c(Cl)c(OC(C)=O)c(Cl)c1O2
inactive: [1] 0.0776 | [2] 0.0649 | [3] 0.0636 | [4] -0.0345

O=c1ccc2ccc(O)c(O)c2o1
inactive: [1] 0.103 | [2] 0.0493 | [5] 0.167 | [6] 0.0609 | [3] 0.12 | [4] 0.132 | [7] 0.0434 | [8] 0.106

O=C1Cc2c([nH]c3ccc([N+](=O)[O-])cc23)-c2ccccc2N1
active: [7] -0.122 | [8] -0.312
inactive: [5] 0.0426 | [6] 0.0802

CC1=C2C(O)C(=O)OC3CC4C(C)(C)C(=O)CCC4(C)C(CC1)C23C (stereo unspecified)
inactive: [1] 0.149 | [2] 0.0333 | [3] 0.0817 | [4] 0.166

N#C/C(=C\c1ccc(O)c(O)c1)C(N)=O
inactive: [9] 0.246 | [10] 0.0278 | [2] 0.0878 | [4] 0.0598 | [12] 0.125
0.319: [1]
active: [3] -0.381 | [11] -0.224

CC(C)(C)C(=O)OCOP(=O)(COCCn1cnc2c(N)ncnc21)OCOC(=O)C(C)(C)C
inactive: [13] -0.0455 | [14] 0.0657 | [15] -0.0326 | [16] 0.0345 | [17] -0.105 | [18] -0.0287 | [20] -0.0209 | [22] -0.0516
active: [19] -0.371 | [21] -0.686 | [23] -1.44 | [24] -0.304

O=S(=O)(c1cccc2c(I)cccc12)N1CCCNCC1
active: [3] -0.248 | [11] -0.335 | [12] -0.197
inactive: [9] 0.188 | [10] -0.167 | [1] 0.201 | [2] -0.255 | [5] 0.178 | [6] 0.133 | [4] -0.111 | [7] 0.0746 | [8] 0.0593

CS(=O)(=O)CCNCc1ccc(-c2ccc3ncnc(Nc4ccc(OCc5cccc(F)c5)c(Cl)c4)c3c2)o1
inactive: [13] 0.145 | [14] 0.0528 | [15] 0.146 | [16] 0.112 | [17] 0.139 | [18] 0.114 | [19] 0.0651 | [20] 0.113 | [21] 0.0899 | [22] 0.0389 | [23] 0.0387 | [24] 0.0962

Oc1ccc(Cl)c2cccnc12
inactive: [1] 0.0488 | [2] 0.119 | [3] 0.153 | [4] 0.115

O=C(O)CCC(=O)N1CCCC1C(=O)O (stereo unspecified)
inactive: [5] 0.193 | [6] 0.0669 | [7] 0.208 | [8] 0.0645

CN1CCc2ccccc2Cc2[nH]c3ccccc3c2CC1
inactive: [5] 0.0116 | [6] 0.091 | [7] 0.105 | [8] -0.105

Nc1ccccn1
inactive: [1] 0.153 | [2] 0.0142 | [3] 0.204 | [4] -0.00691

COc1c(O)cc(O)c2c(=O)c(-c3ccc(O)cc3)coc12
inactive: [1] 0.0728 | [2] 0.0747 | [3] 0.145 | [4] 0.165

CC(C)(Sc1cc(C(C)(C)C)c(O)c(C(C)(C)C)c1)Sc1cc(C(C)(C)C)c(O)c(C(C)(C)C)c1
inactive: [1] 0.147 | [2] 0.0373 | [3] 0.16 | [4] 0.122

COc1cc(Cc2cnc(N)nc2N)cc(OC)c1OC
active: [5] -0.215 | [6] -0.0762 | [7] -1.67 | [8] -2.59
inactive: [1] 0.149 | [2] 0.184 | [3] 0.204 | [4] 0.321

NC(=O)C(=O)O
inactive: [5] 0.137 | [6] 0.013 | [7] 0.0237 | [8] -0.00276

COc1ccc([C@H]2CNC(=O)C2)cc1OC1CCCC1
inactive: [13] 0.0822 | [14] 0.0894 | [15] 0.108 | [16] 0.0819 | [17] 0.0914 | [18] 0.0534 | [19] 0.035 | [20] 0.0665 | [21] 0.0619 | [22] 0.0322 | [23] 0.15 | [24] 0.0323

CCN(CC)CCOC(=O)C(c1ccccc1)C1CCCCC1 (stereo unspecified)
inactive: [1] 0.0555 | [2] 0.0399 | [3] 0.16 | [4] -0.0449
